Drawing on paper PMC6602471, this text covers binding signal (log fluorescence intensity) for 52 sequences.

The list shows a part of the results. At the low end of the ranking, values are background and their order means little.

This assay has as its target T1, ETS1 (UniProt P14921).
T1 sequence: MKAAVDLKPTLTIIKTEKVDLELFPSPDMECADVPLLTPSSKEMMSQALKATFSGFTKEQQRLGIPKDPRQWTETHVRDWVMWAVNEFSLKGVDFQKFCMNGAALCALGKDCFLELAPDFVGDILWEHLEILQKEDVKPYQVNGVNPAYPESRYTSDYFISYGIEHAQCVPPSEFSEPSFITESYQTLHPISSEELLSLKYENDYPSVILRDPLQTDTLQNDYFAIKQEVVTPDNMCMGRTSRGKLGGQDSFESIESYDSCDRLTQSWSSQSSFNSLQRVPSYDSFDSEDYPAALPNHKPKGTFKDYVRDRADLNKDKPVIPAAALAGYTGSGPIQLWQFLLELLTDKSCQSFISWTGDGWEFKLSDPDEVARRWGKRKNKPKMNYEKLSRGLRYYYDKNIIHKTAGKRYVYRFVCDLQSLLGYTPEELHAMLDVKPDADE
Put plainly: custom PBM. Conditions: custom protein-binding microarray; buffer, salt, pH and temperature not stated; high values mean tight binding; double strand, one strand shown.
Consider “GGAAAAAGGCCCAGGGTAACACCGGAGGTGGGCTTAGTCTTGATTCGCTTGACGCTGCTG”, for which the binding signal (log fluorescence intensity) was 8.25.

Regarding “CGGAAGTGTCGTAAACGTAGGATATCCGGTTCTTCTGTCTTGATTCGCTTGACGCTGCTG”, the binding signal (log fluorescence intensity) came to 11.7. Next, “CAGCATAGGACTTCTTCCCTGAAACAATTGATAACCGTCTTGATTCGCTTGACGCTGCTG”: 8.28. Turning to “TTGTATAGGATCCCATCCAACACACGTGTTAAAATGGTCTTGATTCGCTTGACGCTGCTG”, the binding signal (log fluorescence intensity) is 8.32.

Turning to “GGAAAAAGGCCCGGGGTAACACCGGAAGTGGGCTTAGTCTTGATTCGCTTGACGCTGCTG”, the binding signal (log fluorescence intensity) worked out at 12.5. Next, “TGTCGGGTAAGGGAATGTAGATCACGTGAATGAAGAGTCTTGATTCGCTTGACGCTGCTG”: 8.22. With “TGTCGGGTAAGGGAATGTAGATCACGTTAATGAAAAGTCTTGATTCGCTTGACGCTGCTG” the figure was 8.29. Next, “CACAATCTTTACAGTAATGTAGCACGCGTAACTCCTGTCTTGATTCGCTTGACGCTGCTG”: 8.16; “GCTGCTGCGGGGCATACCCCACCGGATGTGACCCCGGTCTTGATTCGCTTGACGCTGCTG”: 10.3; “CGGAAGTGTCGTAAACGTCGGCTATCCGGTTCTTCTGTCTTGATTCGCTTGACGCTGCTG”: 8.79. With “CACAAATTTTACAGTAATGTAGCACGCGTAACTCCTGTCTTGATTCGCTTGACGCTGCTG”, the binding signal (log fluorescence intensity) is 8.1. Regarding “TAAAGGGAAGACGTTTGTGGTAGTTCCGGGTATTAAGTCTTGATTCGCTTGACGCTGCTG”, the binding signal (log fluorescence intensity) came to 8.3.

With “CAGCATAGGACTTCTTCCCTGAAGCAATTGATACCCGTCTTGATTCGCTTGACGCTGCTG”, the binding signal (log fluorescence intensity) was found to be 8.3. As to “CGGAAGTGTCGGAAACGTCGGATATCCGGTTCTTCTGTCTTGATTCGCTTGACGCTGCTG”, the binding signal (log fluorescence intensity) came out at 12.8.

With “GAGTATAGGATCCCATCCAACACACGTGTTAAAATGGTCTTGATTCGCTTGACGCTGCTG”, the binding signal (log fluorescence intensity) stood at 8.2. With “CTGGGACTTGACCCAACTCTGCCACGTGCGTCGTTTGTCTTGATTCGCTTGACGCTGCTG” the figure was 8.25; with “CAGCATAGGACTTCTTCCCTGAACCAATTGATAACCGTCTTGATTCGCTTGACGCTGCTG”, 8.33; with “GCTGCTGCGGTGCATACCCCAACGGATGTGACCCCGGTCTTGATTCGCTTGACGCTGCTG”, 8.26. Next, “TCCGGCTACCACCTCCACCCACTTCAGGCCTTGTAGGTCTTGATTCGCTTGACGCTGCTG”: 8.32; “CAGAATAGGACTTCTTCCCTGAAGCAATTGATAACCGTCTTGATTCGCTTGACGCTGCTG”: 8.33; “CTGGGAATTGACCCAACTCTGCCACGTGGGTCGTTTGTCTTGATTCGCTTGACGCTGCTG”: 8.19. Next, “CTGTATAGGATCCCATCCAACACACGTGTTAAAATGGTCTTGATTCGCTTGACGCTGCTG”: 8.4; “CAGCATAGGACTTGTTCCCTGAAGCAATTGATAACCGTCTTGATTCGCTTGACGCTGCTG”: 8.34; “GATTAATTTCTGCCCTTGTTCGCACGTGCCATAACAGTCTTGATTCGCTTGACGCTGCTG”: 8.22.

Turning to “TCCGGCGACCAGCTCCACCCACTTCAGGCCTTGTAGGTCTTGATTCGCTTGACGCTGCTG”, the binding signal (log fluorescence intensity) was 8.23. Next, “TGGAAGTGTCGTAAACGTCGGATATCCGGTTCTTCTGTCTTGATTCGCTTGACGCTGCTG”: 11.9; “GTTTAATTTCTGCCCTTATTCGCACGTGCCATAACAGTCTTGATTCGCTTGACGCTGCTG”: 8.04; “GCTGCTGCGGTGCATACCCCACCGGAGGTGACCCCGGTCTTGATTCGCTTGACGCTGCTG”: 8.31. Next, “TCCGGCTACCAGCTCCACCCACTTCAGGCCTAGTAGGTCTTGATTCGCTTGACGCTGCTG”: 8.18. Next, “TATTAATTTCTGCCCTTATTCGCACGTGCCATAACAGTCTTGATTCGCTTGACGCTGCTG”: 8.25; “CTGGGACTTGACCCAACTCTGCCACGTGGGACGTTTGTCTTGATTCGCTTGACGCTGCTG”: 8.08; “GTGTATGGGATCCCATCCAACACACGTGTTAAAATGGTCTTGATTCGCTTGACGCTGCTG”: 8.29. Turning to “GCTGCTGCGGTGCATACCCCACCGGATGTGACCCTGGTCTTGATTCGCTTGACGCTGCTG”, the binding signal (log fluorescence intensity) came out at 10.1.

As to “GGAAAAAGGCACAGGGTAACACCGGAAGTGGGCTTAGTCTTGATTCGCTTGACGCTGCTG”, the binding signal (log fluorescence intensity) is 12.1.

Take “TACTGACTTATATATGCGAATGCTCATGAATAGACCGTCTTGATTCGCTTGACGCTGCTG”: the binding signal (log fluorescence intensity) stood at 8.09. With “TGTCGGGTAAGGGAATGTCGATCACGTGAATGAAAAGTCTTGATTCGCTTGACGCTGCTG” the figure was 8.08; with “TCCGGCTACGAGCTCCACCCACTTCAGGCCTTGTAGGTCTTGATTCGCTTGACGCTGCTG”, 8.39; with “GCTGCTGCAGTGCATACCCCACCGGATGTGACCCCGGTCTTGATTCGCTTGACGCTGCTG”, 10.2.

In the case of “TAAAGGGAAGACGGTTGTGGTAGTTCCGGGAATTAAGTCTTGATTCGCTTGACGCTGCTG”, the binding signal (log fluorescence intensity) came to 8.53. With “CGGAAGTGTCGTAAAAGTCGGATATCCGGTTCTTCTGTCTTGATTCGCTTGACGCTGCTG”, the binding signal (log fluorescence intensity) was found to be 12.1.

Take “CGGAAGTGTCGTAAACGTCGGATATCCGGTGCTTCTGTCTTGATTCGCTTGACGCTGCTG”: the binding signal (log fluorescence intensity) was determined as 11.9. Next, “TACTGACTTATATAGGCGAATGCACATGAATAGACCGTCTTGATTCGCTTGACGCTGCTG”: 8.31; “CTGGGACTTGACCCAACTATGCCACGTGGGTCGTTTGTCTTGATTCGCTTGACGCTGCTG”: 8.18.

Regarding “GATTAATTTCTGCCCTTATTAGCACGTGCCATAACAGTCTTGATTCGCTTGACGCTGCTG”, the binding signal (log fluorescence intensity) is 8.19. Turning to “TACTGACTTATATATGCGAATGCACATGAATTGACCGTCTTGATTCGCTTGACGCTGCTG”, the binding signal (log fluorescence intensity) was determined as 8.29. Take “TCCGGCTATCAGCTCCACCCACTTCAGGCCTTGTAGGTCTTGATTCGCTTGACGCTGCTG”: the binding signal (log fluorescence intensity) was 8.34.

Regarding “CACAATTTTTACAGTAATGTAGCACGCGTAACCCCTGTCTTGATTCGCTTGACGCTGCTG”, the binding signal (log fluorescence intensity) was determined as 8.28. Next, “TCCGGCTACCAGCTCCACCCACTTCCGGCCTTGTAGGTCTTGATTCGCTTGACGCTGCTG”: 13.1; “GGAAACAGGCCCAGGGTAACACCGGAAGTGGGCTTAGTCTTGATTCGCTTGACGCTGCTG”: 11.8. With “GGAAAATGGCCCAGGGTAACACCGGAAGTGGGCTTAGTCTTGATTCGCTTGACGCTGCTG” the figure was 12. With “CAGCATAGGACTTATTCCCTGAAGCAATTGATAACCGTCTTGATTCGCTTGACGCTGCTG” the figure was 8.35. For “TGTCGGGTAAGGAAATGTAGATCACGTGAATGAAAAGTCTTGATTCGCTTGACGCTGCTG”, the binding signal (log fluorescence intensity) is 8.48.
